Test results taken from paper PMC9724675.
Results are given in words; binding and its absence hold for the method and conditions named. Binding seen in cells or lysates may run through a third protein. Some results given as binding are weak or reduced against the parent protein; the word gives no strength. Sequences can lack the tags named with a protein.

Tests used:
[1] = target: POPDC1-Myc (Popeye domain-containing protein 1, Myc-tagged) (mouse) (UniProt Q9ES83); assay: co-IP; HEK293 lysates, immunoprecipitation of Myc-tagged POPDC with anti-MYC, western blot (anti-FLAG, anti-GFP)
[2] = target: POPDC1-Myc (Popeye domain-containing protein 1, Myc-tagged) (mouse) (UniProt Q9ES83); assay: proximity ligation; HEK293 cells expressing YFP(GFP)-tagged AC9 and Myc-tagged POPDC proteins, fixed; antibodies against GFP and MYC; competition by overexpressed Flag-AC9, POPDC1-Flag or EGFR (control); high content microscopy
[3] = target: T1, POPDC2-Myc (mouse) (UniProt Q9ES82); assay: as above
T1 sequence: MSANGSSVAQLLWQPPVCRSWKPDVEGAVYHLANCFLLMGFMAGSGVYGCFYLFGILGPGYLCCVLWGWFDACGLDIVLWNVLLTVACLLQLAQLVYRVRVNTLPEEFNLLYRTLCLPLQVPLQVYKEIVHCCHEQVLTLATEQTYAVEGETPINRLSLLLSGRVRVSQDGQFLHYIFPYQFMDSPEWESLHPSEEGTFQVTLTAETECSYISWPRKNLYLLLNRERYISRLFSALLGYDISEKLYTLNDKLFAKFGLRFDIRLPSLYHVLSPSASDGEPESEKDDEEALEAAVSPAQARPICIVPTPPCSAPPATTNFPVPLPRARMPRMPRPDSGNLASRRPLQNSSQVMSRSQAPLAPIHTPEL

[4] = target: T1, POPDC2-Myc (mouse); assay: co-IP; HEK293 lysates, immunoprecipitation of Myc-tagged POPDC with anti-MYC, western blot (anti-FLAG, anti-GFP)
[5] = target: POPDC1-Myc (Popeye domain-containing protein 1, Myc-tagged) (mouse) (UniProt Q9ES83); assay: co-IP; IP-AC assay: HEK293 lysates, immunoprecipitation with anti-MYC, associated AC activity measured with 300 nM Gαs-GTPγS
[6] = target: POPDC1-Myc (Popeye domain-containing protein 1, Myc-tagged) (mouse) (UniProt Q9ES83); assay: co-IP; COS-7 lysates, immunoprecipitation of Myc-tagged POPDC1 and truncations with anti-MYC, western blot with anti-AC9 and anti-MYC
[7] = target: T2, YFP-tagged AC9 (human) (UniProt O60503); assay: proximity ligation; HEK293 cells expressing YFP(GFP)-tagged AC9 and Myc-tagged POPDC proteins, fixed; antibodies against GFP and MYC; competition by overexpressed Flag-AC9, POPDC1-Flag or EGFR (control); high content microscopy
T2 sequence: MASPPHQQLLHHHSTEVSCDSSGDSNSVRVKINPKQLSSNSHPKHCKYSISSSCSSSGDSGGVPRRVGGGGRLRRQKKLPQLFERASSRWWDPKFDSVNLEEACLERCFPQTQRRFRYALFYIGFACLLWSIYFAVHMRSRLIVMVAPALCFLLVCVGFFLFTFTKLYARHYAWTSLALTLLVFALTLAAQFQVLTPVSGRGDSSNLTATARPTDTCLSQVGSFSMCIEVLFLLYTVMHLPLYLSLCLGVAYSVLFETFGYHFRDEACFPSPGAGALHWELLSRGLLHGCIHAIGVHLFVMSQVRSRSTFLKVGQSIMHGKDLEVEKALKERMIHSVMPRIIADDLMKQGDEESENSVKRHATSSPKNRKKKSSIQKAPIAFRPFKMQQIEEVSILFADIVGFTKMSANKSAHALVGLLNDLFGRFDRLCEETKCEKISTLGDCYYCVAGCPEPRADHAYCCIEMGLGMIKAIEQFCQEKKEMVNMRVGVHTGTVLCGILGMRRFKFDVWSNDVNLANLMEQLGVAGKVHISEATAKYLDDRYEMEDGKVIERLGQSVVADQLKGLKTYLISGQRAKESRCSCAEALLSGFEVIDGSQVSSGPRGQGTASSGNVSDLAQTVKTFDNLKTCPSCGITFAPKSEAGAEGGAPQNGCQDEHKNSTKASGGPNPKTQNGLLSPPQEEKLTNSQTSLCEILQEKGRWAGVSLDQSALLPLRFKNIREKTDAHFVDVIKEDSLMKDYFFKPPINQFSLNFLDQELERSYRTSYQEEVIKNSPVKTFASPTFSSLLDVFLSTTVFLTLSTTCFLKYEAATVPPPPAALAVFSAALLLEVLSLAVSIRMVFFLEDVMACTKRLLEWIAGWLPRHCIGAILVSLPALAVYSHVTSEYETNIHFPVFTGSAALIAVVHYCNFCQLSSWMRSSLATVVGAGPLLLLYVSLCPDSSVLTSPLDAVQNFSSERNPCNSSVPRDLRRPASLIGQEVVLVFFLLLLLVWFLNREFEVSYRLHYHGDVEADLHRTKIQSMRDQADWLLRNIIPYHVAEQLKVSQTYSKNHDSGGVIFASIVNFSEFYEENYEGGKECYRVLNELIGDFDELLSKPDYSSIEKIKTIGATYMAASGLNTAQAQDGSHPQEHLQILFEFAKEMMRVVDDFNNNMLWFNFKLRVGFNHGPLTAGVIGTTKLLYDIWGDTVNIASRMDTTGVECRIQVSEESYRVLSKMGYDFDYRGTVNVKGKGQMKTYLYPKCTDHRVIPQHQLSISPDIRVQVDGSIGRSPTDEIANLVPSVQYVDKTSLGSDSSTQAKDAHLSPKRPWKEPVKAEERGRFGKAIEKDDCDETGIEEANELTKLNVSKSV

B1: YFP-tagged AC9 (enzyme, UniProt O60503 1-1353)
chain: MASPPHQQLLHHHSTEVSCDSSGDSNSVRVKINPKQLSSNSHPKHCKYSISSSCSSSGDSGGVPRRVGGGGRLRRQKKLPQLFERASSRWWDPKFDSVNLEEACLERCFPQTQRRFRYALFYIGFACLLWSIYFAVHMRSRLIVMVAPALCFLLVCVGFFLFTFTKLYARHYAWTSLALTLLVFALTLAAQFQVLTPVSGRGDSSNLTATARPTDTCLSQVGSFSMCIEVLFLLYTVMHLPLYLSLCLGVAYSVLFETFGYHFRDEACFPSPGAGALHWELLSRGLLHGCIHAIGVHLFVMSQVRSRSTFLKVGQSIMHGKDLEVEKALKERMIHSVMPRIIADDLMKQGDEESENSVKRHATSSPKNRKKKSSIQKAPIAFRPFKMQQIEEVSILFADIVGFTKMSANKSAHALVGLLNDLFGRFDRLCEETKCEKISTLGDCYYCVAGCPEPRADHAYCCIEMGLGMIKAIEQFCQEKKEMVNMRVGVHTGTVLCGILGMRRFKFDVWSNDVNLANLMEQLGVAGKVHISEATAKYLDDRYEMEDGKVIERLGQSVVADQLKGLKTYLISGQRAKESRCSCAEALLSGFEVIDGSQVSSGPRGQGTASSGNVSDLAQTVKTFDNLKTCPSCGITFAPKSEAGAEGGAPQNGCQDEHKNSTKASGGPNPKTQNGLLSPPQEEKLTNSQTSLCEILQEKGRWAGVSLDQSALLPLRFKNIREKTDAHFVDVIKEDSLMKDYFFKPPINQFSLNFLDQELERSYRTSYQEEVIKNSPVKTFASPTFSSLLDVFLSTTVFLTLSTTCFLKYEAATVPPPPAALAVFSAALLLEVLSLAVSIRMVFFLEDVMACTKRLLEWIAGWLPRHCIGAILVSLPALAVYSHVTSEYETNIHFPVFTGSAALIAVVHYCNFCQLSSWMRSSLATVVGAGPLLLLYVSLCPDSSVLTSPLDAVQNFSSERNPCNSSVPRDLRRPASLIGQEVVLVFFLLLLLVWFLNREFEVSYRLHYHGDVEADLHRTKIQSMRDQADWLLRNIIPYHVAEQLKVSQTYSKNHDSGGVIFASIVNFSEFYEENYEGGKECYRVLNELIGDFDELLSKPDYSSIEKIKTIGATYMAASGLNTAQAQDGSHPQEHLQILFEFAKEMMRVVDDFNNNMLWFNFKLRVGFNHGPLTAGVIGTTKLLYDIWGDTVNIASRMDTTGVECRIQVSEESYRVLSKMGYDFDYRGTVNVKGKGQMKTYLYPKCTDHRVIPQHQLSISPDIRVQVDGSIGRSPTDEIANLVPSVQYVDKTSLGSDSSTQAKDAHLSPKRPWKEPVKAEERGRFGKAIEKDDCDETGIEEANELTKLNVSKSV
[1]
  binding: binds
[2]
  binding: binds
[3]
  binding: binds

B2: Flag-tagged AC9 (adenylyl cyclase 9) (enzyme, UniProt O60503 1-1353)
chain: MASPPHQQLLHHHSTEVSCDSSGDSNSVRVKINPKQLSSNSHPKHCKYSISSSCSSSGDSGGVPRRVGGGGRLRRQKKLPQLFERASSRWWDPKFDSVNLEEACLERCFPQTQRRFRYALFYIGFACLLWSIYFAVHMRSRLIVMVAPALCFLLVCVGFFLFTFTKLYARHYAWTSLALTLLVFALTLAAQFQVLTPVSGRGDSSNLTATARPTDTCLSQVGSFSMCIEVLFLLYTVMHLPLYLSLCLGVAYSVLFETFGYHFRDEACFPSPGAGALHWELLSRGLLHGCIHAIGVHLFVMSQVRSRSTFLKVGQSIMHGKDLEVEKALKERMIHSVMPRIIADDLMKQGDEESENSVKRHATSSPKNRKKKSSIQKAPIAFRPFKMQQIEEVSILFADIVGFTKMSANKSAHALVGLLNDLFGRFDRLCEETKCEKISTLGDCYYCVAGCPEPRADHAYCCIEMGLGMIKAIEQFCQEKKEMVNMRVGVHTGTVLCGILGMRRFKFDVWSNDVNLANLMEQLGVAGKVHISEATAKYLDDRYEMEDGKVIERLGQSVVADQLKGLKTYLISGQRAKESRCSCAEALLSGFEVIDGSQVSSGPRGQGTASSGNVSDLAQTVKTFDNLKTCPSCGITFAPKSEAGAEGGAPQNGCQDEHKNSTKASGGPNPKTQNGLLSPPQEEKLTNSQTSLCEILQEKGRWAGVSLDQSALLPLRFKNIREKTDAHFVDVIKEDSLMKDYFFKPPINQFSLNFLDQELERSYRTSYQEEVIKNSPVKTFASPTFSSLLDVFLSTTVFLTLSTTCFLKYEAATVPPPPAALAVFSAALLLEVLSLAVSIRMVFFLEDVMACTKRLLEWIAGWLPRHCIGAILVSLPALAVYSHVTSEYETNIHFPVFTGSAALIAVVHYCNFCQLSSWMRSSLATVVGAGPLLLLYVSLCPDSSVLTSPLDAVQNFSSERNPCNSSVPRDLRRPASLIGQEVVLVFFLLLLLVWFLNREFEVSYRLHYHGDVEADLHRTKIQSMRDQADWLLRNIIPYHVAEQLKVSQTYSKNHDSGGVIFASIVNFSEFYEENYEGGKECYRVLNELIGDFDELLSKPDYSSIEKIKTIGATYMAASGLNTAQAQDGSHPQEHLQILFEFAKEMMRVVDDFNNNMLWFNFKLRVGFNHGPLTAGVIGTTKLLYDIWGDTVNIASRMDTTGVECRIQVSEESYRVLSKMGYDFDYRGTVNVKGKGQMKTYLYPKCTDHRVIPQHQLSISPDIRVQVDGSIGRSPTDEIANLVPSVQYVDKTSLGSDSSTQAKDAHLSPKRPWKEPVKAEERGRFGKAIEKDDCDETGIEEANELTKLNVSKSV
[1]
  binding: binds
[4]
  binding: binds
[5]
  binding: binds
[6]
  binding: binds

B3: POPDC1-Flag (protein, UniProt Q9ES83 1-358)
chain: MNSTESIPLAQSTVAGFTSELESLTPVPSNETTCENWREIHHLVFHVANVCFAVGLLIPTTLHLHMILLRVMLSLGCTLYVVWATLYRCALDVMIWNSVFLGINILHLSYLLYKKRPVKIEKELGGVYHRLFEPLRVPPDLFRRLTGQFCMIQTLKRGQVYATEDKTSVDDRLSILLKGRMKVSYRGHFLHNIYPCAFIDSPEFRSTQMHKGEKFQVTIVADDNCRFLCWSRERLTYFLESEPFLYEIFRYLIGKDITNKLYSLNDPTLNDKKVKKLEPQMSLCTQISMLEMRNSITSSSDGEDGLHHFLRGSSSTASLPMSSPQQRASAKMKPIEEGVEDDDEVFVSPDALKVHQLP
[7]
  binding: binds
